Measured values from patent US11951087B2, “Eye wash compositions and methods” (priority 2021, dated 2024).

Tested on: Staphylococcus aureus ATCC 33591 (MRSA)
Format: cell-based
Conditions: disc diffusion

Q: With O=C(O)c1ccc(O)c(O)c1 [PCA, protocatechuic acid] as the compound, how does the “effectiveness against Staphylococcus aureus ATCC 33591 (MRSA)” value read?
A: Its value is “effective”.
